Test results: PubChem BioAssay AID1159614 (National Center for Advancing Translational Sciences (NCATS), 2016)
In all, about 45,000 compounds went through this assay and about 65 (0.1%) were called active. The call rests on the fitted dose curve; in most records, active means well fitted activation curve with a large enough effect; inconclusive means small, poorly fitted or top-dose-only effect; inactive means no such curve, though single readings can be large or run the other way. The list shows a part of the results.

target: Galactocerebrosidase (Homo sapiens) (UniProt P54803); assay: A Novel Cell-Based Assay to Identify Small Molecules for B -Galactocerebrosidase; conditions: 145M-Twi-hGALC-G270D cells (Twitcher mouse brain line with human GALC G270D), HMU-beta-Gal fluorescence, 48 h; series mostly up to 57.5 µM; activation: at the top concentration; further: 0% is about no effect; nearly all actives have a fitted effect of over 65% in size
Sequence of UniProt P54803 (P54803 whole entry, looked up): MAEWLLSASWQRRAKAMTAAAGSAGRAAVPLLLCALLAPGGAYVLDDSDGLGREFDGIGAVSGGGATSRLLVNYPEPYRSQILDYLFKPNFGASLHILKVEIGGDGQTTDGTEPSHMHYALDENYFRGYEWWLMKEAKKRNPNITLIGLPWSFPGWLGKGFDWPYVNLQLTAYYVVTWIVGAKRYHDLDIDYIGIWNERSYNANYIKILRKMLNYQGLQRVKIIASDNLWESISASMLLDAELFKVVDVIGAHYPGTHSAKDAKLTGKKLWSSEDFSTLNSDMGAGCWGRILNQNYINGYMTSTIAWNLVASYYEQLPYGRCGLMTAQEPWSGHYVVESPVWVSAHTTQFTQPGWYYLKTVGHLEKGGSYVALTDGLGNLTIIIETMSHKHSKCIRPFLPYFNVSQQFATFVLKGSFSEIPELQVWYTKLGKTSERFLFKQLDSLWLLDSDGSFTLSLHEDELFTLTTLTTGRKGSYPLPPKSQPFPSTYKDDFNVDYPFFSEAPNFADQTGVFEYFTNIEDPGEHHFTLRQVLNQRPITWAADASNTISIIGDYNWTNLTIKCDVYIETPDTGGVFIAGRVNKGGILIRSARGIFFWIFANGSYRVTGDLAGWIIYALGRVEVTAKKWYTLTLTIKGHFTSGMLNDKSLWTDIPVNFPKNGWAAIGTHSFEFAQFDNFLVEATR
Method in brief: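 Mutant human GALC (G270D), stably expressed in a Twitcher mouse brain cell line lacking endogenous GALC, is measured in live-treated cells via 6-hexadecanoylamino-4-methylumbelliferyl-β-galactoside hydrolysis (0.1 mM final, pH 5.2) with fluorescent detection.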

activation, inactive:
O[C@@H](c1cc(C(F)(F)F)nc2c(C(F)(F)F)cccc12)[C@H]1CCCCN1 -6.71%
COC(=O)CC1Oc2ccc(Cl)cc2-n2cc(-c3ccccc3)nc21 (configuration not stated) 4.45%
Oc1c(C(c2ccccc2)N2CCC(O)CC2)sc2nc(-c3ccco3)nn12 (configuration not stated) -19%
CCn1ccc2c(OCC(=O)Nc3ccccc3C(F)(F)F)cccc2c1=O -7.37%
O=C(NC1(C(F)(F)F)NC(=O)N(CCc2ccccc2)C1=O)c1ccc(Cl)cc1 (configuration not stated) -3.95%
COc1ccc(NS(=O)(=O)c2ccc3[nH]c4c(c3c2)CCCC4)cc1OC -8.86%
CCOc1ccc(CCNC(=O)c2cnc3sc(N4CCCC4)nn3c2=O)cc1 -5.58%
CC1N=C2c3ccccc3N=C(SCC(=O)NCCc3ccccc3)N2C1=O (configuration not stated) -30.3%
COc1ccc(Nc2c3c(nc4ccc(NC(=O)c5ccc(F)cc5)cc24)CCCC3)cc1OC -22.2%
CN(Cc1ccccc1)C(=O)c1nc(-c2ccc(Cl)cc2)n2c1CCCCC2 -17.9%
Cc1ccc(C)c(NC(=O)c2ccc(CN3CC(=O)N4CCCCC4C3=O)cc2)c1 (configuration not stated) -23.6%
CCn1c(CN2CCCCC2)nc2cc(NC(=O)c3cc(OC)c(OC)c(OC)c3)ccc21 -19.7%
CCOC(=O)C(C)Sc1ccc2nnc(CCNS(=O)(=O)c3ccccc3)n2n1 (configuration not stated) -11.5%
CC(=O)Nc1ccc(NC(=O)c2ccc3c(c2)N(Cc2cccc(Cl)c2)C(=O)c2ccccc2S3(=O)=O)cc1 -13.6%
Cc1cccc(Cn2cccc2CNS(=O)(=O)c2ccc(Br)cc2)c1 -6.97%
COc1ccc(-c2cc3ccc(O)c(CN4CCC(C)CC4)c3oc2=O)cc1OC -9.86%
COc1cc(-c2nnc(SCCOc3cc(C)cc(C)c3)o2)cc(OC)c1OC 15.2%
CC(CN1c2ccccc2Sc2ccccc21)N(C)C (configuration not stated) -6.54%
Cc1cc(OC(C)C(=O)Nc2sc3c(c2C(N)=O)CCCC3)ccc1Cl (configuration not stated) -6.77%
CC(NC(=O)CN1C(=O)c2cccnc2Oc2ccc(Cl)cc21)c1ccccc1 (configuration not stated) -7.66%
COc1ccc(S(=O)(=O)Nc2cc(S(=O)(=O)c3ccccc3)c(O)c(C)c2C)cc1 -14.2%
Cc1ccccc1CN1C(=O)c2ccccc2S(=O)(=O)c2ccc(C(=O)OCC3CCCO3)cc21 (configuration not stated) 2.46%
Cc1ccc(C(C)C)c(OC(C)C(=O)NCC2(N(C)C)CCCCC2)c1 (configuration not stated) -3.83%
Cc1ccc(Cn2c(C(C)NC(=O)c3ccccc3)nc3ccccc32)cc1 (configuration not stated) -27.2%
O=C(NCCCN1CCN(c2ccccc2)CC1)c1ccc2nc(Cc3ccccc3)oc2c1 -14.2%
CNC(=O)c1ccccc1Sc1ccc2c(/C=C/c3ccccn3)n[nH]c2c1 -6.92%
CCOc1ccccc1CNc1nc2nc(C)cc(C)n2n1 -9.92%
CCC1CCCCN1C(=O)CSc1nc2c([nH]c3ccccc32)c(=O)n1-c1ccc(OC)cc1 (configuration not stated) 13%
Cn1ccc2cc(S(=O)(=O)N3CCN(C(=O)Nc4ccc(F)cc4F)CC3)ccc21 -0.271%
CC(C)NC(=O)CCC(=O)N1Cc2ccccc2Oc2ncccc21 -12.3%
Cc1noc(C)c1S(=O)(=O)N1CCC(C(=O)N2CCN(c3cccc(C(F)(F)F)c3)CC2)CC1 -16.7%
CCOC(=O)c1c(C)[nH]c(CCC(=O)Nc2ccc(OC)c(OC)c2)c1C -9.8%
COc1ccc(OC)c(CCNC(=O)Cn2ncc3c([nH]c4ccccc43)c2=O)c1 -6.25%
Cc1ccccc1C(=O)n1nc(-c2cccnc2)nc1NCc1ccccc1 -11.5%
CCCCN(CC)CCCNC(=O)c1nn(C)c2c1CSc1ccccc1-2 -12.1%
CCn1cc(C(=O)N2CCN(c3cccc(C)c3C)CC2)c2cc(OC)c(OC)cc2c1=O -6.59%
NS(=O)(=O)c1ccc(NC(=O)C2Cc3ccccc3N2C(=O)c2ccccc2)cc1 (configuration not stated) -10.5%
CCn1cc2nc(SCC(=O)Nc3ccccc3C(F)(F)F)n(Cc3ccc(C)cc3)c(=O)c2n1 2.01%
CC1Cc2ccccc2N1S(=O)(=O)c1nnc(NC(=O)c2ccccc2)s1 (configuration not stated) -10.1%
COC(=O)c1nnn(CC(=O)NC(=O)Nc2c(C)cccc2C)c1C(=O)OC -9.13%
COc1ccc(C2CC(=O)c3cc(-c4nc(-c5ccc(Cl)cc5)cs4)c(=O)[nH]c3C2)cc1OC (configuration not stated) -3.28%
COCCCNC(=O)CCC(=O)NNc1nc2ccccc2c2nc(C)nn12 -6.77%
COc1ccc(N2CC(NC(=O)C(c3ccccc3)c3ccccc3)CC2=O)cc1OC (configuration not stated) -6.71%
CC(C)Oc1ccc(-c2nc3c(C#N)c[nH]n3c2NC2CCCCC2)cc1 -9.91%
COC(=O)c1ccc(C(=O)OC)c(NC(=O)c2ccc(-c3ccccc3)s2)c1 -11.9%
COc1cccc(-c2nc(S(=O)(=O)c3ccc(C)cc3)c(N3CCCCC3)o2)c1 -10%
COc1ccc(Cn2c(=O)c3cccnc3n(Cc3cccc(F)c3)c2=O)cc1 -33.1%
COc1ccc(-c2nc(SCC(=O)Nc3c(C)cc(C)cc3C)n[nH]2)cc1 -10.7%
COc1ccccc1CNC(=O)c1ccc2nc(CCc3ccccc3)oc2c1 -18.3%
COc1ccc(-c2cc3nc(C)c(CCC(=O)NC4CCCCC4)c(C)n3n2)c(OC)c1 -20.6%
CC(C)Oc1ccc(C(=O)N(Cc2ccco2)Cc2cccs2)cc1 -7.19%
COc1ccccc1NC(=O)c1c(C)cc(C)nc1SCC(=O)c1ccc(Cl)cc1 -10%
CCOC(=O)c1ccccc1NC(=O)CSc1nccn1Cc1ccco1 -14%
Cc1cc(OCC(=O)N(Cc2ccc(N(C)C)cc2)CC2CCCO2)ccc1Cl (configuration not stated) -12.5%
Cc1cccc(C)c1NC(=O)c1sc(-n2nc(C)c(Cc3ccccc3)c2C)nc1C -11.8%
O=C(CSc1ncc(S(=O)(=O)c2ccc(Cl)cc2)c(=O)[nH]1)Nc1cccc(C(F)(F)F)c1 -10.2%
Cc1ccc(-c2ccc(=O)n(CC(=O)NCCc3ccc(Cl)cc3)n2)cc1 -6.11%
O=C(Nc1ccc2nc(SCCOc3ccccc3)sc2c1)c1ccccc1F -10.7%
CCCCNS(=O)(=O)c1ccc(N2CCCCS2(=O)=O)cc1 -19.7%
Cc1ccc(CSC2=Nc3ccccc3C3=NC(CC(=O)NCc4cccs4)C(=O)N23)c(C)c1 (configuration not stated) -8.55%
CCc1ccc(N(CC)C(=O)CCn2cnc3onc(-c4ccc(F)cc4)c3c2=O)cc1 -6.27%
COc1ccc(-c2cn3c(n2)sc2cc(C(=O)Nc4cccc(SC)c4)ccc23)cc1 -0.495%
CCOC(=O)c1c(C)c(-c2ccccc2)n(CC(=O)Nc2ccc(OCC)cc2)c1C 0.114%
COc1cccc2c1cc1c(=O)n(CC(=O)N3CCN(c4cccc(Cl)c4)CC3)nc(C)n12 -10.9%
COc1ccc(NC(=O)c2c(NCc3cccs3)sc3c2CCCC3)c(OC)c1 -10.5%
COC(=O)C(CCSC)NC(=O)Cn1ncc2c([nH]c3ccccc32)c1=O (configuration not stated) -4.28%
CCCOc1ccc(CNC(=O)c2ccc3c(c2)N(Cc2ccccc2)CCS3)cc1 -20.5%
O=C(OCc1cc(=O)n2nc(-c3cccs3)sc2n1)c1ccccc1 -11%
CC(=O)n1nc(-c2cccnc2)nc1NCc1ccc(F)cc1 -14.3%
CCOc1ccc(NC(=O)c2c(NCc3ccc(C)o3)sc3c2CCCCC3)cc1 -25.5%
Cc1ccc(CNC(=O)CN2C(=O)CSc3ccc(S(=O)(=O)N(C)C)cc32)cc1 6.93%
CCn1cc(C(=O)OCC(=O)Nc2cc(OC)cc(OC)c2)c(=O)c2ccc(C)nc21 -9.8%
O=C1c2oc3ccccc3c(=O)c2C(c2ccc(O)cc2)N1Cc1ccc2c(c1)OCO2 (configuration not stated) -15.4%
O=C(c1ccc(Cl)cc1)N1CCC(c2nc3ccccc3o2)CC1 -16.3%
Cc1nn(C)c2c1c(-c1ccccc1)cc(=O)n2Cc1ccccc1C#N -0.745%
CC(C)CN(CCCNC(=O)c1cc(-c2cccs2)nc2ccccc12)CC(C)C 5.86%
CCN1CCN(CCCNC(=O)c2cnn(-c3ccccc3Cl)c2C2CCN(C(=O)OC(C)(C)C)CC2)CC1 0.186%
CCOC(=O)C1CCCN(c2c(C(=O)c3ccc(OCC)cc3)cnc3ccccc23)C1 (configuration not stated) -9%
Cc1cc(OCC(=O)Nc2c(C(=O)c3ccccc3)oc3ccccc23)cc(C)c1Cl -14.1%
Cc1cccc(C)c1NC(=O)Cn1nnc(C(=O)Nc2c(C)cccc2C)c1N -5.96%
CCCCc1nn2c(=O)cc(COC(=O)c3cccc(Cl)c3)nc2s1 -7.42%
O=C(c1ccccc1)c1cn(Cc2ccc(F)cc2)c2ccccc2c1=O -9.99%
O=C(CCC1N=C2c3ccccc3N=C(SCc3cccc(F)c3)N2C1=O)NCCc1ccccc1 (configuration not stated) -5.45%
Cc1cc(F)ccc1NC(=O)C1CCN(C(=O)c2cnn(-c3ccccc3)c2-n2cccc2)CC1 -15.9%
COc1ccc(C)cc1NC(=O)CCNC(=O)Cn1ccc2ccccc2c1=O 10.6%
COc1ccc(NC(=O)c2oc3ccccc3c2NC(=O)Cc2coc3cc(C)ccc23)cc1 -14.6%
CCOC(=O)c1c(C)[nH]c(CCC(=O)NCc2cccc(C)c2)c1C -7.52%
CN1C(=O)Cc2cc(S(=O)(=O)CCC(=O)Nc3ccc(Cl)c(C(F)(F)F)c3)ccc21 -6.18%
Cc1ccc(CNC(=O)CN2C(=O)CSc3c2c(C)nn3-c2ccccc2)cc1 -4.5%
O=C(NCc1ccccc1Br)c1ccc2c(c1)nc1n2CCOC1 -3.19%
Cn1c(-c2ccccc2)cnc1NCc1ccccc1O -13.4%
CCCNC(=O)COCc1cc(-c2ccc(F)cc2)on1 -14.4%
O=C(CCC1N=C2c3ccccc3N=C(SCc3ccccc3F)N2C1=O)NCc1ccccc1 (configuration not stated) -10.9%
COc1ccc(-n2ncc(C(=O)Nc3ccc4c(c3)OCO4)c2C2CCN(C(=O)OC(C)(C)C)CC2)cc1 -16.1%
Cc1ccc(NC(=O)Cn2cc(S(=O)(=O)Cc3cccc(Cl)c3)c3ccccc32)cc1C -13.8%
COc1ccc(C2=C(C)C(=NCCCN3CCN(c4cc(Cl)ccc4C)CC3)NS2(=O)=O)cc1 -12.3%
COc1ccc2oc(-c3ccc(C)c(NC(=O)c4ccc5c(c4)OCCO5)c3)nc2c1 1.24%
